Experimental data from a compilation of properties of binary mixtures (doi:10.1016/j.molliq.2017.11.011).
Some of these densities may be calculated back from excess volumes.

Experiment: xn = mol fraction of the nth substance listed
Settings: 101 kPa

O + CCCC[P+](CC)(CCCC)CCCC.CCOP(=O)([O-])OCC
x2 = 0
Settings	mass density [kg/m3]
333.15 K	983.2
338.15 K	980.6
343.15 K	977.8
348.15 K	974.8

CCCC[P+](CC)(CCCC)CCCC.CCOP(=O)([O-])OCC + O
Settings	mass density [kg/m3]
298.15 K, x1 = 0.007	1005.4
298.15 K, x1 = 0.0141	1013.1
298.15 K, x1 = 0.0208	1018.5
298.15 K, x1 = 0.028	1022
298.15 K, x1 = 0.0392	1024.7
298.15 K, x1 = 0.048	1025.7
298.15 K, x1 = 0.0564	1026
298.15 K, x1 = 0.0905	1025
298.15 K, x1 = 0.2038	1019.6
298.15 K, x1 = 0.3024	1016.4
298.15 K, x1 = 0.3979	1014.3
298.15 K, x1 = 0.5175	1012.4
298.15 K, x1 = 0.6063	1011.3
298.15 K, x1 = 0.6943	1010.5
298.15 K, x1 = 0.7959	1009.5
298.15 K, x1 = 0.9	1008.9
298.15 K, x1 = 1	1008.4
303.15 K, x1 = 0.0141	1010.6
303.15 K, x1 = 0.0208	1015.4
303.15 K, x1 = 0.028	1018.7
303.15 K, x1 = 0.035	1020.6
303.15 K, x1 = 0.0392	1021.2
303.15 K, x1 = 0.048	1022
303.15 K, x1 = 0.0564	1022.4
303.15 K, x1 = 0.068	1022.2
303.15 K, x1 = 0.0794	1021.9
303.15 K, x1 = 0.0905	1021.3
303.15 K, x1 = 0.1023	1020.7
303.15 K, x1 = 0.1174	1020
303.15 K, x1 = 0.2038	1016
303.15 K, x1 = 0.3024	1012.9
303.15 K, x1 = 0.3979	1010.8
303.15 K, x1 = 0.5175	1009
303.15 K, x1 = 0.6063	1007.9
303.15 K, x1 = 0.6943	1007.1
303.15 K, x1 = 0.9	1005.6
303.15 K, x1 = 1	1005.1
308.15 K, x1 = 0.007	1001.4
308.15 K, x1 = 0.0141	1007.9
308.15 K, x1 = 0.0208	1012.3
308.15 K, x1 = 0.028	1015.2
308.15 K, x1 = 0.035	1017
308.15 K, x1 = 0.048	1018.3
308.15 K, x1 = 0.0564	1018.6
308.15 K, x1 = 0.0905	1017.6
308.15 K, x1 = 0.1023	1017
308.15 K, x1 = 0.1174	1016.3
308.15 K, x1 = 0.3024	1009.3
308.15 K, x1 = 0.3979	1007.3
308.15 K, x1 = 0.5175	1005.5
308.15 K, x1 = 0.6943	1003.7
308.15 K, x1 = 0.7959	1002.9
308.15 K, x1 = 0.9	1002.3
313.15 K, x1 = 0.007	999.1
313.15 K, x1 = 0.0141	1005.1
313.15 K, x1 = 0.0208	1009.1
313.15 K, x1 = 0.035	1013.4
313.15 K, x1 = 0.0392	1013.8
313.15 K, x1 = 0.048	1014.6
313.15 K, x1 = 0.0794	1014.4
313.15 K, x1 = 0.0905	1013.8
313.15 K, x1 = 0.1023	1013.3
313.15 K, x1 = 0.1174	1012.5
313.15 K, x1 = 0.2038	1008.8
313.15 K, x1 = 0.3024	1005.8
313.15 K, x1 = 0.5175	1002
313.15 K, x1 = 0.6943	1000.3
313.15 K, x1 = 0.7959	999.5
313.15 K, x1 = 1	998.6
318.15 K, x1 = 0.007	996.7
318.15 K, x1 = 0.0208	1005.8
318.15 K, x1 = 0.028	1008.2
318.15 K, x1 = 0.035	1009.7
318.15 K, x1 = 0.0392	1010.1
318.15 K, x1 = 0.048	1010.8
318.15 K, x1 = 0.0794	1010.6
318.15 K, x1 = 0.0905	1010
318.15 K, x1 = 0.1023	1009.5
318.15 K, x1 = 0.1174	1008.8
318.15 K, x1 = 0.2038	1005.1
318.15 K, x1 = 0.3024	1002.2
318.15 K, x1 = 0.3979	1000.2
318.15 K, x1 = 0.5175	998.6
318.15 K, x1 = 0.6063	997.6
318.15 K, x1 = 0.6943	996.9
318.15 K, x1 = 0.9	995.7
323.15 K, x1 = 0.007	994.1
323.15 K, x1 = 0.0141	999.1
323.15 K, x1 = 0.0208	1002.4
323.15 K, x1 = 0.0392	1006.4
323.15 K, x1 = 0.068	1007.1
323.15 K, x1 = 0.0794	1006.8
323.15 K, x1 = 0.0905	1006.2
323.15 K, x1 = 0.1023	1005.7
323.15 K, x1 = 0.1174	1005
323.15 K, x1 = 0.2038	1001.5
323.15 K, x1 = 0.3024	998.7
323.15 K, x1 = 0.3979	996.7
323.15 K, x1 = 0.5175	995.1
323.15 K, x1 = 0.6063	994.2
323.15 K, x1 = 0.6943	993.5
323.15 K, x1 = 0.7959	992.8
323.15 K, x1 = 0.9	992.3
323.15 K, x1 = 1	992
328.15 K, x1 = 0.007	991.4
328.15 K, x1 = 0.0141	996
328.15 K, x1 = 0.0208	999
328.15 K, x1 = 0.028	1001
328.15 K, x1 = 0.035	1002.2
328.15 K, x1 = 0.0392	1002.6
328.15 K, x1 = 0.048	1003.1
328.15 K, x1 = 0.0564	1003.4
328.15 K, x1 = 0.068	1003.2
328.15 K, x1 = 0.0794	1002.9
328.15 K, x1 = 0.0905	1002.4
328.15 K, x1 = 0.1174	1001.2
328.15 K, x1 = 0.2038	997.8
328.15 K, x1 = 0.3979	993.2
328.15 K, x1 = 0.5175	991.6
328.15 K, x1 = 0.6063	990.8
328.15 K, x1 = 0.7959	989.4
328.15 K, x1 = 1	988.7
333.15 K, x1 = 0.0141	992.8
333.15 K, x1 = 0.0208	995.5
333.15 K, x1 = 0.028	997.3
333.15 K, x1 = 0.035	998.4
333.15 K, x1 = 0.0392	998.8
333.15 K, x1 = 0.048	999.3
333.15 K, x1 = 0.0564	999.5
333.15 K, x1 = 0.068	999.3
333.15 K, x1 = 0.0794	999
333.15 K, x1 = 0.0905	998.5
333.15 K, x1 = 0.1023	998
333.15 K, x1 = 0.1174	997.4
333.15 K, x1 = 0.2038	994.2
333.15 K, x1 = 0.3979	989.7
333.15 K, x1 = 0.5175	988.2
333.15 K, x1 = 0.6943	986.7
333.15 K, x1 = 0.9	985.7
333.15 K, x1 = 1	985.4
338.15 K, x1 = 0.007	985.5
338.15 K, x1 = 0.0141	989.4
338.15 K, x1 = 0.0208	991.9
338.15 K, x1 = 0.028	993.6
338.15 K, x1 = 0.048	995.4
338.15 K, x1 = 0.0794	995.1
338.15 K, x1 = 0.0905	994.6
338.15 K, x1 = 0.1023	994.1
338.15 K, x1 = 0.1174	993.6
338.15 K, x1 = 0.2038	990.5
338.15 K, x1 = 0.3024	988
338.15 K, x1 = 0.3979	986.2
338.15 K, x1 = 0.6063	983.9
338.15 K, x1 = 0.6943	983.3
338.15 K, x1 = 0.7959	982.7
338.15 K, x1 = 0.9	982.4
338.15 K, x1 = 1	982.1
343.15 K, x1 = 0.007	982.4
343.15 K, x1 = 0.0208	988.3
343.15 K, x1 = 0.028	989.8
343.15 K, x1 = 0.035	990.7
343.15 K, x1 = 0.0392	991
343.15 K, x1 = 0.048	991.4
343.15 K, x1 = 0.068	991.5
343.15 K, x1 = 0.0794	991.2
343.15 K, x1 = 0.0905	990.7
343.15 K, x1 = 0.1023	990.2
343.15 K, x1 = 0.1174	989.7
343.15 K, x1 = 0.2038	986.8
343.15 K, x1 = 0.3024	984.4
343.15 K, x1 = 0.3979	982.7
343.15 K, x1 = 0.5175	981.3
343.15 K, x1 = 0.7959	979.3
343.15 K, x1 = 0.9	979
348.15 K, x1 = 0.007	979.2
348.15 K, x1 = 0.0141	982.5
348.15 K, x1 = 0.0208	984.5
348.15 K, x1 = 0.028	986
348.15 K, x1 = 0.035	986.8
348.15 K, x1 = 0.0392	987
348.15 K, x1 = 0.048	987.4
348.15 K, x1 = 0.0564	987.6
348.15 K, x1 = 0.068	987.5
348.15 K, x1 = 0.0794	987.2
348.15 K, x1 = 0.0905	986.8
348.15 K, x1 = 0.1023	986.3
348.15 K, x1 = 0.1174	985.8
348.15 K, x1 = 0.2038	983.1
348.15 K, x1 = 0.3024	980.8
348.15 K, x1 = 0.3979	979.2
348.15 K, x1 = 0.5175	977.9
348.15 K, x1 = 0.6063	977.1
348.15 K, x1 = 0.9	975.8
348.15 K, x1 = 1	975.5
